From the supplement of paper PMC4604168 (melanoma cell lines)
Some of the results follow. Repeats are few or missing, and single values can be far off.

Tested on: COLO792
Assay: cell count relative to DMSO control; melanoma cells; higher = more viable cells
Conditions: library dose: standard library concentration; 72 h
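Further: cells treated in 1,536-well plates, then fixed and DAPI-stained, with nuclei counted from automated high-throughput microscope images.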

SMILES	cell count [%]
CCCS(=O)(=O)Nc1ccc(F)c(C(=O)c2c[nH]c3ncc(Cl)cc23)c1F + Nc1ncn([C@H]2C[C@H](O)[C@@H](CO)O2)c(=O)n1 [decitabine] (first compound 0.4 µM, partner dose 0.5 µM)	85.2
C=C(c1ccc(C(=O)O)cc1)c1cc2c(cc1C)C(C)(C)CCC2(C)C [Bexarotene] + Nc1cccc2c1CN(C1CCC(=O)NC1=O)C2=O [lenalidomide] (first compound 10 µM, partner dose 5 µM)	98.4
C=C(c1ccc(C(=O)O)cc1)c1cc2c(cc1C)C(C)(C)CCC2(C)C [Bexarotene] + NC(=O)Nc1cc(-c2cccc(F)c2)sc1C(=O)N[C@H]1CCCNC1 [AZD7762] (first compound 10 µM, partner dose 0.1 µM)	47.6
CCCS(=O)(=O)Nc1ccc(F)c(C(=O)c2c[nH]c3ncc(Cl)cc23)c1F + O=C(CCCCCCC(=O)Nc1ccccc1)NO [vorinostat] (first compound 0.4 µM, partner dose 0.4 µM)	88.7
CN(c1ncccc1CNc1nc(Nc2ccc3c(c2)CC(=O)N3)ncc1C(F)(F)F)S(C)(=O)=O + CCCS(=O)(=O)Nc1ccc(F)c(C(=O)c2c[nH]c3ncc(Cl)cc23)c1F [PLX4720] (first compound 0.4 µM, partner dose 0.4 µM)	83
NC1(c2ccc(-c3nc4ccn5c(=O)[nH]nc5c4cc3-c3ccccc3)cc2)CCC1 + COc1ccc(Cl)c(Nc2nc3ccccc3nc2NS(=O)(=O)c2cccc(NC(=O)C(C)(C)N)c2)c1 [XL147] (first compound 2 µM, partner dose 4 µM)	39.3
CS(=O)(=O)c1ccc(C(=O)Nc2ccc(Cl)c(-c3ccccn3)c2)c(Cl)c1 [vismodegib] + C=CCn1c(=O)c2cnc(Nc3ccc(N4CCN(C)CC4)cc3)nc2n1-c1cccc(C(C)(C)O)n1 [MK1775] (first compound 5 µM, partner dose 0.1 µM)	77.5
CS(=O)(=O)c1ccc(C(=O)Nc2ccc(Cl)c(-c3ccccn3)c2)c(Cl)c1 [vismodegib] + COc1ccc(Cl)c(Nc2nc3ccccc3nc2NS(=O)(=O)c2cccc(NC(=O)C(C)(C)N)c2)c1 [XL147] (first compound 5 µM, partner dose 4 µM)	70.3
NC1(c2ccc(-c3nc4ccn5c(=O)[nH]nc5c4cc3-c3ccccc3)cc2)CCC1 + COc1cc(Nc2ncc(F)c(Nc3ccc4c(n3)NC(=O)C(C)(C)O4)n2)cc(OC)c1OC [Tamatinib] (first compound 2 µM, partner dose 2 µM)	26.1
C=C(c1ccc(C(=O)O)cc1)c1cc2c(cc1C)C(C)(C)CCC2(C)C [Bexarotene] + NCC(=O)Nc1ccc(-n2nc(C(F)(F)F)cc2-c2ccc3c(ccc4ccccc43)c2)cc1 [OSU03012] (first compound 10 µM, partner dose 5 µM)	74.1
CS(=O)(=O)c1ccc(C(=O)Nc2ccc(Cl)c(-c3ccccn3)c2)c(Cl)c1 [vismodegib] + O=C(O)c1ccc(-c2c[nH]c3ncc(-c4ccccc4)cc23)cc1C1CCCC1 [GSK650394] (first compound 5 µM, partner dose 0.8 µM)	87.4
NC1(c2ccc(-c3nc4ccn5c(=O)[nH]nc5c4cc3-c3ccccc3)cc2)CCC1 + CO[C@@H]1[C@H](N(C)C(=O)c2ccccc2)C[C@H]2O[C@]1(C)n1c3ccccc3c3c4c(c5c6ccccc6n2c5c31)C(=O)NC4 [Midostaurin] (first compound 2 µM, partner dose 0.4 µM)	54.6
CN(c1ncccc1CNc1nc(Nc2ccc3c(c2)CC(=O)N3)ncc1C(F)(F)F)S(C)(=O)=O + Nc1ncn([C@H]2C[C@H](O)[C@@H](CO)O2)c(=O)n1 [decitabine] (first compound 0.4 µM, partner dose 0.5 µM)	96.7
CN(c1ncccc1CNc1nc(Nc2ccc3c(c2)CC(=O)N3)ncc1C(F)(F)F)S(C)(=O)=O + Cn1c(Nc2ccc(C(F)(F)F)cc2)nc2cc(Oc3ccnc(-c4ncc(C(F)(F)F)[nH]4)c3)ccc21 [CHIR265] (first compound 0.4 µM, partner dose 0.4 µM)	12.8
NC1(c2ccc(-c3nc4ccn5c(=O)[nH]nc5c4cc3-c3ccccc3)cc2)CCC1 + O=C(Nc1cccc(Cl)c1)Nc1ncc(CCNc2ncnc3ccsc23)s1 [SNS314] (first compound 2 µM, partner dose 0.004 µM)	53.5
CCCS(=O)(=O)Nc1ccc(F)c(C(=O)c2c[nH]c3ncc(Cl)cc23)c1F + Clc1ccc(Nc2nnc(Cc3ccncc3)c3ccccc23)cc1 [vatalanib] (first compound 0.4 µM, partner dose 10 µM)	97.9
NC1(c2ccc(-c3nc4ccn5c(=O)[nH]nc5c4cc3-c3ccccc3)cc2)CCC1 + C[C@@H](Oc1cc(-c2cnn(C3CCNCC3)c2)cnc1N)c1c(Cl)ccc(F)c1Cl [Crizotinib] (first compound 2 µM, partner dose 1 µM)	58.4

SMILES	cell count [%]
CN(c1ncccc1CNc1nc(Nc2ccc3c(c2)CC(=O)N3)ncc1C(F)(F)F)S(C)(=O)=O + Cn1nnc2c(C(N)=O)ncn2c1=O [temozolomide] (first compound 0.4 µM, partner dose 10 µM)	57.6
NC1(c2ccc(-c3nc4ccn5c(=O)[nH]nc5c4cc3-c3ccccc3)cc2)CCC1 + Cn1c(=O)n(-c2ccc(C(C)(C)C#N)cc2)c2c3cc(-c4cnc5ccccc5c4)ccc3ncc21 [NVP-BEZ235] (first compound 2 µM, partner dose 0.02 µM)	23.3
C=C(c1ccc(C(=O)O)cc1)c1cc2c(cc1C)C(C)(C)CCC2(C)C [Bexarotene] + C#Cc1cccc(Nc2ncnc3cc(OCCOC)c(OCCOC)cc23)c1 [erlotinib] (first compound 10 µM, partner dose 4 µM)	66.1
CCCS(=O)(=O)Nc1ccc(F)c(C(=O)c2c[nH]c3ncc(Cl)cc23)c1F + CC1(C)NC(=O)N(c2ccc([N+](=O)[O-])c(C(F)(F)F)c2)C1=O [nilutamide] (first compound 0.4 µM, partner dose 5 µM)	100
NC1(c2ccc(-c3nc4ccn5c(=O)[nH]nc5c4cc3-c3ccccc3)cc2)CCC1 + C#Cc1cccc(Nc2ncnc3cc(OCCOC)c(OCCOC)cc23)c1 [erlotinib] (first compound 2 µM, partner dose 4 µM)	35.4
CCCS(=O)(=O)Nc1ccc(F)c(C(=O)c2c[nH]c3ncc(Cl)cc23)c1F + OCCn1cc(-c2cnc3nnn(Cc4ccc5ncccc5c4)c3n2)cn1 [PF04217903] (first compound 0.4 µM, partner dose 5 µM)	118
CS(=O)(=O)c1ccc(C(=O)Nc2ccc(Cl)c(-c3ccccn3)c2)c(Cl)c1 [vismodegib] + Nc1nc(F)nc2c1ncn2[C@@H]1O[C@H](CO)[C@@H](O)[C@@H]1O [fludarabine] (first compound 5 µM, partner dose 1 µM)	70.2
NC1(c2ccc(-c3nc4ccn5c(=O)[nH]nc5c4cc3-c3ccccc3)cc2)CCC1 + C[C@]1(c2nc3c(C(N)=O)cccc3[nH]2)CCCN1 [Veliparib] (first compound 2 µM, partner dose 7 µM)	50.4
CS(=O)(=O)c1ccc(C(=O)Nc2ccc(Cl)c(-c3ccccn3)c2)c(Cl)c1 [vismodegib] + C#Cc1cccc(Nc2ncnc3cc(OCCOC)c(OCCOC)cc23)c1 [erlotinib] (first compound 5 µM, partner dose 4 µM)	45.5
CCCS(=O)(=O)Nc1ccc(F)c(C(=O)c2c[nH]c3ncc(Cl)cc23)c1F + NC(=O)Nc1cc(-c2cccc(F)c2)sc1C(=O)N[C@H]1CCCNC1 [AZD7762] (first compound 0.4 µM, partner dose 0.1 µM)	41.5
C=C(c1ccc(C(=O)O)cc1)c1cc2c(cc1C)C(C)(C)CCC2(C)C [Bexarotene] + COc1ccc(Cl)c(Nc2nc3ccccc3nc2NS(=O)(=O)c2cccc(NC(=O)C(C)(C)N)c2)c1 [XL147] (first compound 10 µM, partner dose 4 µM)	96.1
NC1(c2ccc(-c3nc4ccn5c(=O)[nH]nc5c4cc3-c3ccccc3)cc2)CCC1 + Nc1cccc2c1CN(C1CCC(=O)NC1=O)C2=O [lenalidomide] (first compound 2 µM, partner dose 5 µM)	65.5
NC1(c2ccc(-c3nc4ccn5c(=O)[nH]nc5c4cc3-c3ccccc3)cc2)CCC1 + O=C(O)c1ccc(-c2c[nH]c3ncc(-c4ccccc4)cc23)cc1C1CCCC1 [GSK650394] (first compound 2 µM, partner dose 0.8 µM)	56.8
C=C(c1ccc(C(=O)O)cc1)c1cc2c(cc1C)C(C)(C)CCC2(C)C [Bexarotene] + O=C(Nc1cccc(Cl)c1)Nc1ncc(CCNc2ncnc3ccsc23)s1 [SNS314] (first compound 10 µM, partner dose 0.004 µM)	49.6
CCCS(=O)(=O)Nc1ccc(F)c(C(=O)c2c[nH]c3ncc(Cl)cc23)c1F + NCC(=O)Nc1ccc(-n2nc(C(F)(F)F)cc2-c2ccc3c(ccc4ccccc43)c2)cc1 [OSU03012] (first compound 0.4 µM, partner dose 5 µM)	50
NC1(c2ccc(-c3nc4ccn5c(=O)[nH]nc5c4cc3-c3ccccc3)cc2)CCC1 + C=C(c1ccc(C(=O)O)cc1)c1cc2c(cc1C)C(C)(C)CCC2(C)C [Bexarotene] (first compound 2 µM, partner dose 10 µM)	61.1
CCCS(=O)(=O)Nc1ccc(F)c(C(=O)c2c[nH]c3ncc(Cl)cc23)c1F + COc1cc(Nc2ncc(F)c(Nc3ccc4c(n3)NC(=O)C(C)(C)O4)n2)cc(OC)c1OC [Tamatinib] (first compound 0.4 µM, partner dose 2 µM)	47.2
